Assay results taken from PubChem BioAssay AID1468 (National Center for Advancing Translational Sciences (NCATS), 2008).
The whole screen tested about 280,000 compounds, of which about 1,100 (0.39%) were called active. Inconclusive means that the source gave no clear call. Such entries were picked first, then a sample of the others. The call rests on the fitted dose curve; in most records, active means well fitted inhibition curve with a large enough effect; inconclusive means small, poorly fitted or top-dose-only effect, or effect the other way; inactive means flat fitted curve, though single readings scatter. Potencies of inconclusive entries are left out as doubtful fits.

target: Microtubule-associated protein tau (Homo sapiens) (UniProt P10636); experiment: qHTS for Inhibitors of Tau Fibril Formation, Fluorescence Polarization; conditions: K18 P301L tau heparin fibrillization, Alexa594 FP, 6 h; series mostly up to 57.7 µM; further: nearly all actives have a fitted effect of over 55% in size
UniProt P10636, sequence (P10636 whole entry, looked up): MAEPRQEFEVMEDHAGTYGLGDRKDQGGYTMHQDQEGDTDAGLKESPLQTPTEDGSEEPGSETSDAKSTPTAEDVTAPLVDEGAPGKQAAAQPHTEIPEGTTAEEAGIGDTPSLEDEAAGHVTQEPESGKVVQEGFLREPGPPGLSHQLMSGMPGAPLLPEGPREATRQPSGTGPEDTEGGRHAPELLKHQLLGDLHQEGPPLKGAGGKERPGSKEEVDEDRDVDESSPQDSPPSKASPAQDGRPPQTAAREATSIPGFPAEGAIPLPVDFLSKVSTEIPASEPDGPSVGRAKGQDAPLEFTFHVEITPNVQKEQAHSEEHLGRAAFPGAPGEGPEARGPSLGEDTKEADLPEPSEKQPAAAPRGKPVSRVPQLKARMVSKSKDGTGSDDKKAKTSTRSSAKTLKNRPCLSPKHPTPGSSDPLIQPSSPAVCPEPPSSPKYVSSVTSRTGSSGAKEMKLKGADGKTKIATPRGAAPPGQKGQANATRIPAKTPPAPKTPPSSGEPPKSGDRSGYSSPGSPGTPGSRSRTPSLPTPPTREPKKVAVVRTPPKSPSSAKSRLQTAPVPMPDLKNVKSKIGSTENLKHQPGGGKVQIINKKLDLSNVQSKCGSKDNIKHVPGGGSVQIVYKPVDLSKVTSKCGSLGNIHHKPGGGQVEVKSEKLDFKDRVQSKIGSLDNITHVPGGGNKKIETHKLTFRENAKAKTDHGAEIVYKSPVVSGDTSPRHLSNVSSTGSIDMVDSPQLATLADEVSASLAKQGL
In short: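 Heparin (20 uM) drove fibril formation of recombinant tau K18 P301L, 15 uM unlabeled with 0.24 uM Alexa 594 label, for 6 hr at 37 C in 100 mM sodium acetate pH 7. Fluorescence polarization (555/632 nm) read 1 hr after 30 uM ThT.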
Potency means the concentration at half of the fitted maximal effect; tags describe the fitted curve by direction and shape.

Row | Compound | Potency
1 | O=C(Nc1ccc(N2CCN(C(=O)c3ccc(Cl)cc3)CC2)cc1)c1cccnc1 | inconclusive [activator, partial curve, poor fit]
2 | CO[C@@]1(NC(=O)CSCC#N)C(=O)N2C(C(=O)O)=C(CSc3nnnn3C)CSC21 (some centres not stated) | inconclusive [inhibitor, partial curve]
3 | OCCN1CCN(Cc2cc(Cl)c3cccnc3c2O)CC1 | inconclusive [inhibitor, single point]
4 | Cc1cc(OCc2cc3c(cc2Cl)OCO3)c2c(C)cc(=O)oc2c1 | inconclusive [inhibitor, full curve]
5 | CCOc1ccc(CCNC(=O)Cn2c(C)c3cnn(-c4ccccc4)c(=O)c3c2C)cc1 | inactive
6 | Nc1nc(N)c(S(=O)(=O)c2ccccc2)c(Nc2ccc(F)cc2)n1 | inconclusive [inhibitor, partial curve, poor fit]
7 | COC(=O)N/N=C/c1cc(Cl)cc(Cl)c1OCc1ccc(F)cc1 | inconclusive [inhibitor, single point]
8 | COc1cccc(-c2cc3nc(-c4ccccc4)cc(N4CCCC(O)C4)n3n2)c1 (configuration not stated) | inconclusive [inhibitor, full curve, poor fit]
9 | Cc1cccc(N(C)S(=O)(=O)c2nnc(NC(=O)C3CCCCC3)s2)c1 | inactive
10 | COc1cc(C(=O)Nc2ccc(S(=O)(=O)N3CCc4ccccc43)cc2)cc(OC)c1OC | inconclusive [inhibitor, partial curve]
11 | CCOC(=O)c1cccc(NC(=O)c2sc3nc[nH]c(=O)c3c2C)c1 | inconclusive [inhibitor, partial curve]
12 | FC(F)Oc1ccc(NC(=S)NCc2ccccc2)cc1Cl | inconclusive [inhibitor, single point]
13 | Nc1ccc(C(=O)c2cccs2)cc1 | inactive
14 | Cc1ccc(C(=O)CSc2nc(-c3ccccc3)ccc2C#N)cc1 | inactive
15 | CC(=O)Nc1ccc(C(=O)OCc2ccccc2Br)cc1 | inconclusive [inhibitor, partial curve]
16 | CC(C)c1ccc(/C=C(\C#N)c2nc(-c3ccc(O)cc3)cs2)cc1 | active: 12.6 µM
17 | COC(=O)c1ccc(Cn2c(SCC(=O)Nc3ccc(F)cc3)nc3ccccc32)cc1 | inconclusive [inhibitor, partial curve]
18 | COc1ccc(Nc2nnc(SC(C(=O)Nc3cc(C)ccc3C)c3ccccc3)s2)cc1 (configuration not stated) | inconclusive [activator, partial curve]
19 | CCCCN(CC)Cc1ccc(CNS(=O)(=O)c2cc3c(cc2Cl)NC(=O)CO3)o1 | inconclusive [inhibitor, single point]
20 | Cc1csc(SCC(=O)Nc2ccc(Cl)cn2)n1 | inactive
21 | CCOc1ccc(NC(=O)Cn2c(=O)n(Cc3ccc(C(=O)NCc4ccc5c(c4)OCO5)cc3)c(=O)c3ccccc32)cc1 | active: 28.2 µM
22 | O=C(CCl)Oc1ccc2occ(C(=O)c3cccs3)c2c1 | inconclusive [inhibitor, single point]
23 | COc1ccc(N2CCN(c3ccc(N)cc3C#N)CC2)cc1 | inconclusive [activator, partial curve]

Row | Compound | Potency
24 | COc1ccccc1NS(=O)(=O)c1cc(NC(=O)c2ccc(Cl)nc2)ccc1Cl | active: 25.1 µM
25 | COc1ccccc1NC(=O)Cn1nc(C)n2cccc2c1=O | inconclusive [inhibitor, partial curve]
26 | O=C(/C=C/c1ccc2c(c1)OCO2)NCCSCc1ccc(Cl)cc1Cl | inconclusive [inhibitor, full curve, poor fit]
27 | CCn1c(SCC(=O)Nc2nc(-c3ccc(C)cc3)cs2)nnc1-c1ccccc1O | inconclusive [inhibitor, single point]
28 | NC1=NC(=O)S/C1=C\c1ccc(O)cc1 | inconclusive [activator, single point]
29 | CCc1cccc(NC(=O)CN2c3ccccc3S(=O)(=O)c3ccccc32)c1 | inactive
30 | O=C(N/N=C/c1ccc(OC(=O)c2ccccc2)cc1)c1cccc(O)c1 | inconclusive [inhibitor, single point]
31 | COc1cc2[nH]c(=O)n(Cc3ccc(C(=O)NCc4ccc(C)cc4)cc3)c(=O)c2cc1OC | inconclusive [inhibitor, partial curve]
32 | CC1=C(C(=O)Nc2cccc(C(F)(F)F)c2)C2(CCCCCC2)OC1=O | inactive
33 | CC(=O)C1C(c2ccc(Cl)cc2)c2c(noc2C)CC1(C)O (configuration not stated) | inconclusive [inhibitor, partial curve, poor fit]
34 | O=C(Cn1c(=O)n(Cc2ccc(C(=O)NCc3ccc4c(c3)OCO4)cc2)c(=O)c2ccccc21)Nc1cccc(Cl)c1 | inconclusive [inhibitor, single point]
35 | O=C(CC1(O)C(=O)c2ccccc2C1=O)c1ccccc1 | inconclusive [inhibitor, partial curve]
36 | Cc1ccccc1Nc1nc(N)nc(CSc2nc3ccccc3c(=O)n2C)n1 | inconclusive [inhibitor, single point]
37 | CC(=O)Oc1cc2c3c(c1)/C(=C1/SC(=S)NC1=O)C(=O)N3C(C)(C)C=C2C | inconclusive [inhibitor, single point]
38 | CCOC(=O)/C=C/S(=O)(=O)c1ccc(NC(C)=O)cc1 | inconclusive [inhibitor, single point]
39 | CCc1oc2ccccc2c1C(=O)CCN1CCCCC1 | inconclusive [activator, single point]
40 | CCOc1ccc(CCNC(=O)c2cc(Nc3ccc(C)cc3C)nc3ccccc23)cc1OCC | inactive
41 | Cc1ccc(CNC(=O)CCc2ccc(S(=O)(=O)NC3CCCCC3)cc2)cc1 | inactive
42 | Cc1ccc(S(=O)(=O)N2CCN(c3nccnc3C#N)CC2)cc1 | inconclusive [inhibitor, single point]
43 | O=C(COC(=O)Cc1ccsc1)NCC1CCCCC1 | inconclusive [inhibitor, single point]
44 | CC1CCN(S(=O)(=O)c2ccc3[nH]cc(C(=O)NCc4ccc(F)cc4)c(=O)c3c2)CC1 | inconclusive [inhibitor, full curve]
45 | CCC1CCCCN1S(=O)(=O)c1ccc(NC(=O)CSc2ncccc2C(=O)O)cc1 (configuration not stated) | inactive
46 | CCOc1ccc(C(=O)NCCn2cc(SCC(=O)Nc3cc(C)on3)c3ccccc32)cc1 | inconclusive [inhibitor, single point]

Row | Compound | Potency
47 | CC(=O)Nc1cccc(OCCCNC(=O)c2ccc(F)cc2)c1 | inconclusive [inhibitor, single point]
48 | C=CCc1ccc(OCCCN2CCCC(C)C2)c(OC)c1 (configuration not stated) | inactive
49 | COc1cccc(/C=N/n2c(-c3cccs3)n[nH]c2=S)c1 | inactive
50 | COCCn1c(N)c(C(=O)NCC2CCCO2)c2nc3ccccc3nc21 (configuration not stated) | inactive
51 | Cc1cc(C(=O)N/N=C/c2cccc([N+](=O)[O-])c2)c2ccccc2n1 | inactive
52 | Cc1ccc(NC(=O)CSC2=C(C#N)C(c3ccco3)C3=C(CC(C)(C)CC3=O)N2)cc1 (configuration not stated) | inconclusive [inhibitor, single point]
53 | CN(C)c1ccc(/C=C2/C=C(c3ccc4c(c3)CCCC4)OC2=O)cc1 | inconclusive [activator, full curve, poor fit]
54 | Cc1ccc(Cn2c(=O)n(Cc3ccccc3Cl)c(=O)c3cccnc32)cc1 | inactive
55 | CCN(CC)S(=O)(=O)c1ccc(C(=O)Nc2nnc(COC)o2)cc1 | inactive
56 | CCOc1ccc(-c2c(C(=O)N/N=C/c3ccc(OC)cc3)nnn2-c2nonc2N)cc1 | inconclusive [inhibitor, partial curve, poor fit]
57 | CN(C)CCNC(=O)COc1cccc2c1OC(C)(C)C2 | inconclusive [inhibitor, single point]
58 | CC(=O)Nc1cccc(C(=O)/C=C/c2ccco2)c1 | inconclusive [inhibitor, single point]
59 | Cc1noc2ncnc(Sc3ccccc3Cl)c12 | inconclusive [inhibitor, partial curve, poor fit]
60 | O=C(OCc1nc2ccccc2s1)c1cccc(N2C(=O)CCC2=O)c1 | inconclusive [inhibitor, single point]
61 | Cc1ccccc1N1C(=O)C(Cl)=C(N2CCN(c3ccccc3)CC2)C1=O | inconclusive [inhibitor, partial curve]
62 | COC(=O)c1ccc(NC(=O)CSc2nc3cc4ccccc4cc3[nH]2)cc1 | inconclusive [inhibitor, partial curve]
63 | COc1ccc(/C=C2\SC(=S)N(CC(=O)OCC(=O)Nc3ccc(C)cc3Cl)C2=O)cc1 | inconclusive [inhibitor, partial curve]
64 | CCOC(=O)c1ccc(N2Cc3ccccc3C2=NC(=O)c2cccs2)cc1 | inconclusive [inhibitor, single point]
65 | O=C(Cc1cccs1)N1CCCC(c2nc3c(nnn3Cc3cccc(Cl)c3)c(=O)[nH]2)C1 (configuration not stated) | inactive
66 | CC(C)CN1C=C2C(=O)C(C)(OC(=O)CCc3ccccc3)C(=O)C=C2C=C1c1ccc(C#N)cc1 (configuration not stated) | inconclusive [inhibitor, partial curve]
67 | c1ccc(-n2nnnc2N2CCOCC2)cc1 | inactive
